From the supplement of paper PMC8728848
Some of the results follow.

Assays:
Assay in all cases: glycan array binding signal (z-score within array); higher = stronger binding
Settings in all cases: glycan notation: IUPAC condensed, linker removed
[1] = target: Gal(b1-4)GlcNAc(b1-3)Gal(b1-4)GlcNAc(b1-3)Gal(b1-4)GlcNAc
How it was run: (§1)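 Glycan array data were curated from 3228 arrays in the Consortium for Functional Glycomics database and kept only where the protein sequence was available. Glycan names were converted to IUPAC-condensed notation, and columns mapping to the same glycan were averaged. The binding signal is a within-array Z-score, averaged across arrays of the same protein sequence at different concentrations or buffers and across linkers. Negative Z-scores can be read as non-binding.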

[2] = target: Gal(b1-4)GlcNAc(b1-3)Gal(b1-4)[Fuc(a1-3)]GlcNAc(b1-3)Gal(b1-4)[Fuc(a1-3)]GlcNAc
How it was run: as §1

[3] = target: Gal(b1-4)GlcNAc(b1-3)GalNAc
How it was run: as §1

[4] = target: Gal(b1-4)GlcNAc(b1-3)[Gal(b1-4)GlcNAc(b1-6)]Gal(b1-4)GlcNAc
How it was run: as §1

[5] = target: Gal(b1-4)GlcNAc(b1-3)[GlcNAc(b1-6)]Gal(b1-4)GlcNAc
How it was run: as §1

[6] = target: Gal(b1-4)GlcNAc(b1-6)Gal(b1-4)GlcNAc
How it was run: as §1

[7] = target: Gal(b1-4)GlcNAc(b1-6)Gal(b1-4)GlcNAc(b1-6)GalNAc
How it was run: as §1

[8] = target: Gal(b1-4)GlcNAc(b1-6)GalNAc
How it was run: as §1

[9] = target: Gal(b1-4)GlcNAc(b1-6)[Gal(b1-3)]GalNAc
How it was run: as §1

Gal3S(b1-3)GalNAc = target: Gal3S(b1-3)GalNAc
How it was run: as §1

Gal3S(b1-3)GlcNAc = target: Gal3S(b1-3)GlcNAc
How it was run: as §1

[10] = target: Gal3S(b1-3)[Fuc(a1-4)]GlcNAc
How it was run: as §1

Gal3S(b1-4)Glc = target: Gal3S(b1-4)Glc
How it was run: as §1

Gal3S(b1-4)Glc6S = target: Gal3S(b1-4)Glc6S
How it was run: as §1

Gal3S(b1-4)GlcNAc = target: Gal3S(b1-4)GlcNAc
How it was run: as §1

Gal3S(b1-4)GlcNAc6S = target: Gal3S(b1-4)GlcNAc6S
How it was run: as §1

[11] = target: Gal3S(b1-4)[Fuc(a1-3)]Glc
How it was run: as §1

Gal3S4S(b1-4)GlcNAc = target: Gal3S4S(b1-4)GlcNAc
How it was run: as §1

Gal3S6S(b1-4)GlcNAc = target: Gal3S6S(b1-4)GlcNAc
How it was run: as §1

Gal3S6S(b1-4)GlcNAc6S = target: Gal3S6S(b1-4)GlcNAc6S
How it was run: as §1

Gal4S(b1-4)GlcNAc = target: Gal4S(b1-4)GlcNAc
How it was run: as §1

Gal4S6S(b1-4)GlcNAc = target: Gal4S6S(b1-4)GlcNAc
How it was run: as §1

Gal6S(b1-4)Glc = target: Gal6S(b1-4)Glc
How it was run: as §1

Gal6S(b1-4)Glc6S = target: Gal6S(b1-4)Glc6S
How it was run: as §1

Gal6S(b1-4)GlcNAc = target: Gal6S(b1-4)GlcNAc
How it was run: as §1

Gal6S(b1-4)GlcNAc6S = target: Gal6S(b1-4)GlcNAc6S
How it was run: as §1

GalNAc(a1-3)Gal = target: GalNAc(a1-3)Gal
How it was run: as §1

GalNAc(a1-3)GalNAc = target: GalNAc(a1-3)GalNAc
How it was run: as §1

GalNAc(b1-3)Gal = target: GalNAc(b1-3)Gal
How it was run: as §1

[12] = target: GalNAc(b1-3)Gal(a1-4)Gal(b1-4)GlcNAc
How it was run: as §1

GalNAc(b1-3)GalNAc = target: GalNAc(b1-3)GalNAc
How it was run: as §1

GalNAc(b1-4)GlcNAc = target: GalNAc(b1-4)GlcNAc
How it was run: as §1

Glc(a1-4)Glc = target: Glc(a1-4)Glc
How it was run: as §1

Glc(a1-6)Glc(a1-6)Glc = target: Glc(a1-6)Glc(a1-6)Glc
How it was run: as §1

Glc(b1-4)Glc = target: Glc(b1-4)Glc
How it was run: as §1

Glc(b1-6)Glc = target: Glc(b1-6)Glc
How it was run: as §1

GlcA(b1-3)Gal = target: GlcA(b1-3)Gal
How it was run: as §1

GlcA(b1-3)GlcNAc = target: GlcA(b1-3)GlcNAc
How it was run: as §1

GlcA(b1-6)Gal = target: GlcA(b1-6)Gal
How it was run: as §1

[13] = target: GlcNAc(a1-3)Gal(b1-4)GlcNAc
How it was run: as §1

[14] = target: GlcNAc(a1-6)Gal(b1-4)GlcNAc
How it was run: as §1

[15] = target: GlcNAc(b1-2)Gal(b1-3)GalNAc
How it was run: as §1

[16] = target: GlcNAc(b1-2)Man(a1-3)[GlcNAc(b1-2)Man(a1-6)]Man(b1-4)GlcNAc(b1-4)GlcNAc
How it was run: as §1

GlcNAc(b1-3)Gal = target: GlcNAc(b1-3)Gal
How it was run: as §1

[17] = target: GlcNAc(b1-3)Gal(b1-3)GalNAc
How it was run: as §1

B1: SLR2P2A3 (Tachypleus tridentatus), TAL2_TACTR (protein)
chain: MEKGTPPTHDSDNWMGRAKKIGNGGWNQFQFLFFDPNGYLYAVSKDKLYKASPPQSDTDNWIARATEIGSGGWSGSKFLFFHPNGYLYAVHGQRLYKALPPVSNQD
[1]
  glycan array binding signal (z-score): -0.476
[2]
  glycan array binding signal (z-score): -0.362
[3]
  glycan array binding signal (z-score): 0.121
[4]
  glycan array binding signal (z-score): -0.244
[5]
  glycan array binding signal (z-score): -0.364
[6]
  glycan array binding signal (z-score): -0.159
[7]
  glycan array binding signal (z-score): -0.529
[8]
  glycan array binding signal (z-score): 3.21
[9]
  glycan array binding signal (z-score): 0.245
Gal3S(b1-3)GalNAc
  glycan array binding signal (z-score): -0.534
Gal3S(b1-3)GlcNAc
  glycan array binding signal (z-score): -0.234
[10]
  glycan array binding signal (z-score): 0.058
Gal3S(b1-4)Glc
  glycan array binding signal (z-score): -0.109
Gal3S(b1-4)Glc6S
  glycan array binding signal (z-score): 0.231
Gal3S(b1-4)GlcNAc
  glycan array binding signal (z-score): -0.493
Gal3S(b1-4)GlcNAc6S
  glycan array binding signal (z-score): -0.09
[11]
  glycan array binding signal (z-score): 0.241
Gal3S4S(b1-4)GlcNAc
  glycan array binding signal (z-score): -0.172
Gal3S6S(b1-4)GlcNAc
  glycan array binding signal (z-score): -0.389
Gal3S6S(b1-4)GlcNAc6S
  glycan array binding signal (z-score): -0.21
Gal4S(b1-4)GlcNAc
  glycan array binding signal (z-score): -0.394
Gal4S6S(b1-4)GlcNAc
  glycan array binding signal (z-score): -0.119
Gal6S(b1-4)Glc
  glycan array binding signal (z-score): -0.187
Gal6S(b1-4)Glc6S
  glycan array binding signal (z-score): 0.197
Gal6S(b1-4)GlcNAc
  glycan array binding signal (z-score): -0.167
Gal6S(b1-4)GlcNAc6S
  glycan array binding signal (z-score): 0.845
GalNAc(a1-3)Gal
  glycan array binding signal (z-score): 6.13
GalNAc(a1-3)GalNAc
  glycan array binding signal (z-score): 3.69
GalNAc(b1-3)Gal
  glycan array binding signal (z-score): -0.208
[12]
  glycan array binding signal (z-score): -0.055
GalNAc(b1-3)GalNAc
  glycan array binding signal (z-score): -0.248
GalNAc(b1-4)GlcNAc
  glycan array binding signal (z-score): -0.025
Glc(a1-4)Glc
  glycan array binding signal (z-score): 0.209
Glc(a1-6)Glc(a1-6)Glc
  glycan array binding signal (z-score): -0.114
Glc(b1-4)Glc
  glycan array binding signal (z-score): 0.132
Glc(b1-6)Glc
  glycan array binding signal (z-score): 0.523
GlcA(b1-3)Gal
  glycan array binding signal (z-score): -0.185
GlcA(b1-3)GlcNAc
  glycan array binding signal (z-score): 0.168
GlcA(b1-6)Gal
  glycan array binding signal (z-score): -0.493
[13]
  glycan array binding signal (z-score): 5.44
[14]
  glycan array binding signal (z-score): 6.84
[15]
  glycan array binding signal (z-score): -0.506
[16]
  glycan array binding signal (z-score): -0.274
GlcNAc(b1-3)Gal
  glycan array binding signal (z-score): -0.35
[17]
  glycan array binding signal (z-score): 0.326
